Data as given in the supplement of paper PMC10037445.
Over roughly 2,900 compounds, “NF-kB SEAP reporter activity, fold change vs agonist alone” has its median near 0.99; the highest 2% begin near 2.6. The list shows a part of the results.

Assays:
RAW-Dual [1] = assay: NF-kB SEAP reporter activity, fold change vs agonist alone; cytotoxicity flag (confluency mask): not cytotoxic; higher = enhanced NF-kB activity
How it was run: (§1)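 RAW-Dual macrophages were seeded in DMEM at 50,000 cells/well in 384-well plates, given 50 nL of library stock by pin tool, and given a PRR agonist 1 h later. Plates were held at 37 °C, 5% CO2 for 20 hours, after which supernatant was read for IRF by QuantiLuc luminescence and for NF-κB by QuantiBlue absorbance at 620 nm. Reporter activity is expressed as fold change over wells that received agonist alone. A well was called cytotoxic when IncuCyte confluency fell below 70% of agonist controls in both mask sets.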

RAW-Dual [2] = assay: NF-kB SEAP reporter activity, fold change vs agonist alone; higher = enhanced NF-kB activity
How it was run: as §1

RAW-Dual [3] = assay: NF-kB SEAP reporter activity, fold change vs agonist alone; cytotoxicity flag (confluency mask): cytotoxic (confluency <70% of control); higher = enhanced NF-kB activity
How it was run: as §1

[4] = agonist: ODN 1826 (TLR9) 0.5 ug/mL
[5] = agonist: Pam2CSK4 (TLR2/6) 0.1 ug/mL
[6] = agonist: Pam3CSK4 (TLR2/1) 0.1 ug/mL
[7] = library stock concentration (final ~1000-fold dilution): 10 mM, cytotoxicity flag (confluency mask): not cytotoxic, agonist: Imiquimod (TLR7) […]
[8] = library stock concentration (final ~1000-fold dilution): 10 mM, cytotoxicity flag (confluency mask): not cytotoxic, agonist: MPLA (TLR4) […]
[9] = library stock concentration (final ~1000-fold dilution): 10 mM, cytotoxicity flag (confluency mask): cytotoxic (confluency <70% of control), agonist: MPLA (TLR4) […]

## O=c1cc(-c2ccc(O)c(-c3c(O)cc(O)c4c(=O)cc(-c5ccc(O)cc5)oc34)c2)oc2cc(O)cc(O)c12 (library stock concentration (final ~1000-fold dilution): 10 mM)
RAW-Dual [1]; agonist: LPS (TLR4) 0.1 ug/mL
  NF-kB SEAP reporter activity: 0.895
RAW-Dual [1]; [4]
  NF-kB SEAP reporter activity: 1.01
RAW-Dual [1]; [5]
  NF-kB SEAP reporter activity: 0.932
RAW-Dual [1]; [6]
  NF-kB SEAP reporter activity: 1.14

## O=c1cc(-c2ccc(O)c(-c3c(O)cc(O)c4c(=O)cc(-c5ccc(O)cc5)oc34)c2)oc2cc(O)cc(O)c12
RAW-Dual [2]; [7]
  NF-kB SEAP reporter activity: 1.02
RAW-Dual [2]; [8]
  NF-kB SEAP reporter activity: 1.24

## COc1ccccc1S(=O)(=O)Nc1ccc2c(c1)CN(C)C(=O)N2 (library stock concentration (final ~1000-fold dilution): 10 mM)
RAW-Dual [1]; agonist: LPS (TLR4) 0.1 ug/mL
  NF-kB SEAP reporter activity: 3.81
RAW-Dual [1]; [4]
  NF-kB SEAP reporter activity: 2.25
RAW-Dual [1]; [5]
  NF-kB SEAP reporter activity: 0.457
RAW-Dual [1]; [6]
  NF-kB SEAP reporter activity: 1.4

## COc1ccccc1S(=O)(=O)Nc1ccc2c(c1)CN(C)C(=O)N2
RAW-Dual [2]; [7]
  NF-kB SEAP reporter activity: 2.14
RAW-Dual [2]; [8]
  NF-kB SEAP reporter activity: 2.51

## CC(C)C1=CC2=CCC3C(C)(C(=O)O)CCCC3(C)C2CC1 (configuration not stated) (library stock concentration (final ~1000-fold dilution): 10 mM)
RAW-Dual [1]; agonist: LPS (TLR4) 0.1 ug/mL
  NF-kB SEAP reporter activity: 0.876
RAW-Dual [1]; [4]
  NF-kB SEAP reporter activity: 0.965
RAW-Dual [1]; [5]
  NF-kB SEAP reporter activity: 1.03
RAW-Dual [1]; [6]
  NF-kB SEAP reporter activity: 0.83

## CC(C)C1=CC2=CCC3C(C)(C(=O)O)CCCC3(C)C2CC1 (configuration not stated)
RAW-Dual [2]; [8]
  NF-kB SEAP reporter activity: 1.07

## CCCCC(=O)N(Cc1ccc(-c2ccccc2-c2nn[nH]n2)cc1)C(C(=O)O)C(C)C (configuration not stated) (library stock concentration (final ~1000-fold dilution): 10 mM)
RAW-Dual [1]; agonist: LPS (TLR4) 0.1 ug/mL
  NF-kB SEAP reporter activity: 1.18
RAW-Dual [1]; [4]
  NF-kB SEAP reporter activity: 1.09
RAW-Dual [1]; [5]
  NF-kB SEAP reporter activity: 1.1
RAW-Dual [1]; [6]
  NF-kB SEAP reporter activity: 1

## CCCCC(=O)N(Cc1ccc(-c2ccccc2-c2nn[nH]n2)cc1)C(C(=O)O)C(C)C (configuration not stated)
RAW-Dual [2]; [7]
  NF-kB SEAP reporter activity: 0.926
RAW-Dual [2]; [8]
  NF-kB SEAP reporter activity: 1.01

## Cc1ccc(C(=O)Nc2ccc(CN3CCN(C)CC3)c(C(F)(F)F)c2)cc1C#Cc1cnc2cccnn12
RAW-Dual [2]; library stock concentration (final ~1000-fold dilution): 10 mM, cytotoxicity flag (confluency mask): cytotoxic (confluency <70% of control), agonist: Imiquimod (TLR7) […]
  NF-kB SEAP reporter activity: 0.226
RAW-Dual [2]; [9]
  NF-kB SEAP reporter activity: 0.221

## Cc1ccc(C(=O)Nc2ccc(CN3CCN(C)CC3)c(C(F)(F)F)c2)cc1C#Cc1cnc2cccnn12 (library stock concentration (final ~1000-fold dilution): 10 mM)
RAW-Dual [3]; agonist: LPS (TLR4) 0.1 ug/mL
  NF-kB SEAP reporter activity: 0.182
RAW-Dual [3]; [4]
  NF-kB SEAP reporter activity: 0.246
RAW-Dual [3]; [5]
  NF-kB SEAP reporter activity: 0.111
RAW-Dual [3]; [6]
  NF-kB SEAP reporter activity: 0.206

## COc1ccccc1C(=O)Nc1cc2c(cc1N1CCCCC1)n(C)c(=O)n2C (library stock concentration (final ~1000-fold dilution): 10 mM)
RAW-Dual [1]; agonist: LPS (TLR4) 0.1 ug/mL
  NF-kB SEAP reporter activity: 0.938
RAW-Dual [1]; [4]
  NF-kB SEAP reporter activity: 0.981
RAW-Dual [1]; [5]
  NF-kB SEAP reporter activity: 1.04
RAW-Dual [1]; [6]
  NF-kB SEAP reporter activity: 1.09

## COc1ccccc1C(=O)Nc1cc2c(cc1N1CCCCC1)n(C)c(=O)n2C
RAW-Dual [2]; [7]
  NF-kB SEAP reporter activity: 1.02
RAW-Dual [2]; [8]
  NF-kB SEAP reporter activity: 1.04

## CN1CCN(C(=O)c2ccc(-c3ccc4c(C=O)c(O)ccc4c3)s2)CC1
RAW-Dual [2]; [7]
  NF-kB SEAP reporter activity: 1.08
RAW-Dual [2]; [8]
  NF-kB SEAP reporter activity: 1.33

## CN1CCN(C(=O)c2ccc(-c3ccc4c(C=O)c(O)ccc4c3)s2)CC1 (library stock concentration (final ~1000-fold dilution): 10 mM)
RAW-Dual [1]; agonist: LPS (TLR4) 0.1 ug/mL
  NF-kB SEAP reporter activity: 1.18
RAW-Dual [1]; [4]
  NF-kB SEAP reporter activity: 1.27
RAW-Dual [1]; [5]
  NF-kB SEAP reporter activity: 0.649
RAW-Dual [1]; [6]
  NF-kB SEAP reporter activity: 0.794

## COc1ccc2c(Nc3cc(NC(=O)c4cccc(C(C)(C)C#N)c4)ccc3C)ncnc2c1 (library stock concentration (final ~1000-fold dilution): 10 mM)
RAW-Dual [1]; agonist: LPS (TLR4) 0.1 ug/mL
  NF-kB SEAP reporter activity: 1.29
RAW-Dual [1]; [4]
  NF-kB SEAP reporter activity: 0.631
RAW-Dual [1]; [5]
  NF-kB SEAP reporter activity: 0.256
RAW-Dual [1]; [6]
  NF-kB SEAP reporter activity: 0.424

## COc1ccc2c(Nc3cc(NC(=O)c4cccc(C(C)(C)C#N)c4)ccc3C)ncnc2c1
RAW-Dual [2]; [7]
  NF-kB SEAP reporter activity: 0.916
RAW-Dual [2]; [8]
  NF-kB SEAP reporter activity: 1.18

## O=C(c1cccc(Cl)c1F)N1CCN(Cc2cccc(Nc3nccs3)n2)CC1
RAW-Dual [2]; [7]
  NF-kB SEAP reporter activity: 0.802
RAW-Dual [2]; [8]
  NF-kB SEAP reporter activity: 0.936

## O=C(c1cccc(Cl)c1F)N1CCN(Cc2cccc(Nc3nccs3)n2)CC1 (library stock concentration (final ~1000-fold dilution): 10 mM)
RAW-Dual [1]; agonist: LPS (TLR4) 0.1 ug/mL
  NF-kB SEAP reporter activity: 0.665
RAW-Dual [1]; [4]
  NF-kB SEAP reporter activity: 0.643
RAW-Dual [1]; [5]
  NF-kB SEAP reporter activity: 0.543
RAW-Dual [1]; [6]
  NF-kB SEAP reporter activity: 0.42

## Oc1cc(O)c2c(c1)OC(c1ccc(O)c(O)c1)C(O)C2c1c(O)cc(O)c2c1OC(c1ccc(O)c(O)c1)C(O)C2 (configuration not stated)
RAW-Dual [2]; library stock concentration (final ~1000-fold dilution): 1 mM, cytotoxicity flag (confluency mask): not cytotoxic, agonist: Imiquimod (TLR7) […]
  NF-kB SEAP reporter activity: 0.859
RAW-Dual [2]; library stock concentration (final ~1000-fold dilution): 1 mM, cytotoxicity flag (confluency mask): not cytotoxic, agonist: MPLA (TLR4) […]
  NF-kB SEAP reporter activity: 1.21

## Oc1cc(O)c2c(c1)OC(c1ccc(O)c(O)c1)C(O)C2c1c(O)cc(O)c2c1OC(c1ccc(O)c(O)c1)C(O)C2 (configuration not stated) (library stock concentration (final ~1000-fold dilution): 1 mM)
RAW-Dual [1]; agonist: LPS (TLR4) 0.1 ug/mL
  NF-kB SEAP reporter activity: 1.44
RAW-Dual [1]; [4]
  NF-kB SEAP reporter activity: 1.26
RAW-Dual [1]; [5]
  NF-kB SEAP reporter activity: 1.13
RAW-Dual [1]; [6]
  NF-kB SEAP reporter activity: 1.05

## CCOC(=O)C=P(c1ccccc1)(c1ccccc1)c1ccccc1 (library stock concentration (final ~1000-fold dilution): 10 mM)
RAW-Dual [1]; agonist: LPS (TLR4) 0.1 ug/mL
  NF-kB SEAP reporter activity: 0.964
RAW-Dual [1]; [4]
  NF-kB SEAP reporter activity: 0.875
RAW-Dual [1]; [5]
  NF-kB SEAP reporter activity: 0.894
RAW-Dual [1]; [6]
  NF-kB SEAP reporter activity: 0.912

## CCOC(=O)C=P(c1ccccc1)(c1ccccc1)c1ccccc1
RAW-Dual [2]; [7]
  NF-kB SEAP reporter activity: 0.715
RAW-Dual [2]; [8]
  NF-kB SEAP reporter activity: 1.05

## CC1OC(OC2CCC3(C)C(CCC4(C)C3C=CC35OCC6(CCC(C)(C)CC63)C(O)CC45C)C2(C)CO)C(O)C(OC2OC(CO)C(O)C(O)C2O)C1O (configuration not stated) (library stock concentration (final ~1000-fold dilution): 10 mM)
RAW-Dual [3]; agonist: LPS (TLR4) 0.1 ug/mL
  NF-kB SEAP reporter activity: 0.221
RAW-Dual [3]; [4]
  NF-kB SEAP reporter activity: 0.257
RAW-Dual [3]; [5]
  NF-kB SEAP reporter activity: 0.0991
RAW-Dual [3]; [6]
  NF-kB SEAP reporter activity: 0.143

## CC1OC(OC2CCC3(C)C(CCC4(C)C3C=CC35OCC6(CCC(C)(C)CC63)C(O)CC45C)C2(C)CO)C(O)C(OC2OC(CO)C(O)C(O)C2O)C1O (configuration not stated)
RAW-Dual [2]; [9]
  NF-kB SEAP reporter activity: 0.319

## COc1cccc(NC(=O)/C=C/c2ccc(Cl)cc2)c1
RAW-Dual [2]; [7]
  NF-kB SEAP reporter activity: 1.02
RAW-Dual [2]; [8]
  NF-kB SEAP reporter activity: 1.04
